According to publication PMC5054401:
Results are given in words; binding and its absence hold for the method and conditions named. In cells and extracts the contact can be indirect. Some results given as binding are weak or reduced against the parent protein; the word gives no strength. For part of these data: Where a sequence is shown, tags or fusion partners need not be part of it.

By UniProt entry, the sequences of proteins in these tests, tags left out.
UniProt P52294: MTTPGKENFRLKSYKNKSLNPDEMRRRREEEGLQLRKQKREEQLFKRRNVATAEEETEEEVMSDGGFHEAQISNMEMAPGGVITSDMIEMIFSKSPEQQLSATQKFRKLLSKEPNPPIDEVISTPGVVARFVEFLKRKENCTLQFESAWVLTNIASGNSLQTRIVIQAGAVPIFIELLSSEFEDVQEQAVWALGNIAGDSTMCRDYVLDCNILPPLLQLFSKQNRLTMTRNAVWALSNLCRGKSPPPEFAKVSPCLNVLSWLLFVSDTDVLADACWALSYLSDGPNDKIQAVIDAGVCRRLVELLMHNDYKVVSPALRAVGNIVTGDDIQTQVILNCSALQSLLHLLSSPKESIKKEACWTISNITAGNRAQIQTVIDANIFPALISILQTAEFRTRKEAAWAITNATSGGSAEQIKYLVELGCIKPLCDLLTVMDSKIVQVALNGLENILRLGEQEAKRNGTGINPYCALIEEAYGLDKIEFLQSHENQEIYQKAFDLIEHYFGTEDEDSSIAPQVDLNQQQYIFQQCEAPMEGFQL
UniProt O00629: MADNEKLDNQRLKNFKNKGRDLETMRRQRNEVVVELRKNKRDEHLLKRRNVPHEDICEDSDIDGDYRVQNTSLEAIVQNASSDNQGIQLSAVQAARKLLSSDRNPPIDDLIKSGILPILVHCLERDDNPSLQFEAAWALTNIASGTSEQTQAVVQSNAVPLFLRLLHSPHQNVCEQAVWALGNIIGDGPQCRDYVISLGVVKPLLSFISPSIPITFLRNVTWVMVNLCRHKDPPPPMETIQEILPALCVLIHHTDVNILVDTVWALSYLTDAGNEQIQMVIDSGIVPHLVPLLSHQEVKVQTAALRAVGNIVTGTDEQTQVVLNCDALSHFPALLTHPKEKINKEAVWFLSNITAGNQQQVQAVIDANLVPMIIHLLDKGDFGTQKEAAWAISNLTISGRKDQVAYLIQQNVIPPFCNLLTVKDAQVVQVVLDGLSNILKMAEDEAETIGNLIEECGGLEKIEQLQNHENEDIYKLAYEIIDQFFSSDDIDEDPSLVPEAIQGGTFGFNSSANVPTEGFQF
UniProt O00505: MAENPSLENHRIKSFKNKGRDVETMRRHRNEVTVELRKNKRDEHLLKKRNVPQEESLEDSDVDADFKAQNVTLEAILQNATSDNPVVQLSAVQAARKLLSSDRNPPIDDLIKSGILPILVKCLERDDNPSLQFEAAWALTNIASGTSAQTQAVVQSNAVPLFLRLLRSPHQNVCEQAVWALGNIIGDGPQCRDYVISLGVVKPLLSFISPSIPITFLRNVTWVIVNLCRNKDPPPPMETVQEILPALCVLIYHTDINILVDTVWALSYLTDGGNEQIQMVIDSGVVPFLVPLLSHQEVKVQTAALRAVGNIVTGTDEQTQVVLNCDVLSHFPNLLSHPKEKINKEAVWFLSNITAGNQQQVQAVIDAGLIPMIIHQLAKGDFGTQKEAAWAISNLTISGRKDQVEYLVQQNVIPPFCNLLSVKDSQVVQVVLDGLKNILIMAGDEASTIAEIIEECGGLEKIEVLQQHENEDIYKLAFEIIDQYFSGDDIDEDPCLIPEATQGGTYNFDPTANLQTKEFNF
UniProt Q14974: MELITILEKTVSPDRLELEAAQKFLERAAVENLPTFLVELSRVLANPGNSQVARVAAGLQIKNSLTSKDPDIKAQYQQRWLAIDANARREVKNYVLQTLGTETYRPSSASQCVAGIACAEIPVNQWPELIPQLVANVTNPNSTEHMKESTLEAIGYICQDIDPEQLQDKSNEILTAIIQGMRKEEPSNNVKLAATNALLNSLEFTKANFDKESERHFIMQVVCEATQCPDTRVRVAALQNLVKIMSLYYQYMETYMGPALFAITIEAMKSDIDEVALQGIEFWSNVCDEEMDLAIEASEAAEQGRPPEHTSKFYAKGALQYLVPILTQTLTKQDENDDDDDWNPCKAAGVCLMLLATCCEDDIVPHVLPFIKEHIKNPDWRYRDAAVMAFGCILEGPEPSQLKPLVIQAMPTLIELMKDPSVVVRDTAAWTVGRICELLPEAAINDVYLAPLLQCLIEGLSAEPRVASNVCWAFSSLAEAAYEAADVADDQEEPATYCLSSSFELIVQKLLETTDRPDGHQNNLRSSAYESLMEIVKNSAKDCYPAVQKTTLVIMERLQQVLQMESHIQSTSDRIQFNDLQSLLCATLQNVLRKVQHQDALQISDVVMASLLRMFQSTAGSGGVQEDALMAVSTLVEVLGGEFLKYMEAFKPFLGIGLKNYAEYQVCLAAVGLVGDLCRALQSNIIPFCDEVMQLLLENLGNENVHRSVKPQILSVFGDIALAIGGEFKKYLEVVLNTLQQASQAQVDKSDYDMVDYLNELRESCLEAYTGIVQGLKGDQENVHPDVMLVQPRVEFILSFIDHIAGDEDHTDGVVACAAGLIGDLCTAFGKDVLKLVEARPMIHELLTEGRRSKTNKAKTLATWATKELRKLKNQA

T1: Flag-tagged WT-OGT (human O-GlcNAc transferase) (human) (UniProt O15294)
T1 sequence: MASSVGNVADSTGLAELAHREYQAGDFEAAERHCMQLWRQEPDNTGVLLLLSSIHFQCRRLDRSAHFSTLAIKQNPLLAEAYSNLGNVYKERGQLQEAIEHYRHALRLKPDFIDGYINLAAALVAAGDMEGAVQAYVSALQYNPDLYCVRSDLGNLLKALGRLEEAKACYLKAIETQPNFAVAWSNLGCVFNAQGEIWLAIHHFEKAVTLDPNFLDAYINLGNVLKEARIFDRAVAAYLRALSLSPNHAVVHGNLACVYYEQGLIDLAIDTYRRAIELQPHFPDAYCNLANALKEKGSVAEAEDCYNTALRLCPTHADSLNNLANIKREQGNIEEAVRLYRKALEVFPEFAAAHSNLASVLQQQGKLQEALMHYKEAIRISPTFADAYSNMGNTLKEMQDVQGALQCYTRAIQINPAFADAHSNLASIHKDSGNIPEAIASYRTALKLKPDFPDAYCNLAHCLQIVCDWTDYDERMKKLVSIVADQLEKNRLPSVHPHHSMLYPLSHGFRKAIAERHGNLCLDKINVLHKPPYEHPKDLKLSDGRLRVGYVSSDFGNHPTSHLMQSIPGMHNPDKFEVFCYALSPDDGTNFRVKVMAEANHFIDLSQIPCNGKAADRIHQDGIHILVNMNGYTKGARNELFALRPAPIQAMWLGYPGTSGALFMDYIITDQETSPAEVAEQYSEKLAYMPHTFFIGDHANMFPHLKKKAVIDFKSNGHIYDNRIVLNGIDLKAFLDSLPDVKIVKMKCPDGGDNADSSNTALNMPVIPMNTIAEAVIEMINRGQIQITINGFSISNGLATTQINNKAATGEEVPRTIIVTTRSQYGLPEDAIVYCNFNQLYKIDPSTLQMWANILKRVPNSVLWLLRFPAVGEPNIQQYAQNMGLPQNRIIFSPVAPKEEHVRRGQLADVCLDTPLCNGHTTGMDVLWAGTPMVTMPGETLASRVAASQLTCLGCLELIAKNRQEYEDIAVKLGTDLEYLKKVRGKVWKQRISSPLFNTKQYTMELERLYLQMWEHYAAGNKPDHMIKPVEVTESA

T2: Flag-tagged Mono-OGT (OGT-W198E, I201D) (human) (UniProt O15294)
T2 sequence: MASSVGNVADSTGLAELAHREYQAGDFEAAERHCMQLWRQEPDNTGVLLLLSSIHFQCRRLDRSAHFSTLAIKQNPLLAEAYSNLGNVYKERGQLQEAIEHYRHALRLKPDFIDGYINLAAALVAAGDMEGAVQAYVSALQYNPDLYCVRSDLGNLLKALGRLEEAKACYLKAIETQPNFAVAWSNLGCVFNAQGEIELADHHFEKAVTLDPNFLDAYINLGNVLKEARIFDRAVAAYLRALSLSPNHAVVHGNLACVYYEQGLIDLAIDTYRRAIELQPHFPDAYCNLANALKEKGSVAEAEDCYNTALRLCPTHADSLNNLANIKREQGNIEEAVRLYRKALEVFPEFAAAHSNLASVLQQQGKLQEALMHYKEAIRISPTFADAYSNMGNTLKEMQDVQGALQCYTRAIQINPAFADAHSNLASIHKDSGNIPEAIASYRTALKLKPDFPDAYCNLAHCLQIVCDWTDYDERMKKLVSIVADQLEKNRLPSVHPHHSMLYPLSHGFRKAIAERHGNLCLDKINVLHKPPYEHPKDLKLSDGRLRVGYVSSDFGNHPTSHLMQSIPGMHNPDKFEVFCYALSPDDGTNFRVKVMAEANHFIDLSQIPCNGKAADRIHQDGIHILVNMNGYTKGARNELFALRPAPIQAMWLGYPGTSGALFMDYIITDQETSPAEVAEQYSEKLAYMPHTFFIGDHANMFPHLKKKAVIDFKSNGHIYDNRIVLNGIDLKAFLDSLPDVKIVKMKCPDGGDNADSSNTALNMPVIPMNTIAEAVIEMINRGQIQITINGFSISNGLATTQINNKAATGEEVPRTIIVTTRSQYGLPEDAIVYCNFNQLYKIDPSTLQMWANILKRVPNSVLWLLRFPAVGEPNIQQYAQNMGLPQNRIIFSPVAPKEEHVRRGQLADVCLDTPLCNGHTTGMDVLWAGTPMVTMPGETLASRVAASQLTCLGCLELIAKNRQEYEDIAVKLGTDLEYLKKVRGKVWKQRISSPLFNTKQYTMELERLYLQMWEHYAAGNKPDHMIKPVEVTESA


Assays:
[1] = target: GST-importin α5 fusion protein (human) (UniProt P52294); test: pull-down; recombinant GST-importin α5 immobilised on Glutathione-Sepharose 4B (5 μg of beads) incubated with pre-cleared lysates of HeLa cells overexpressing Flag-tagged OGT constructs, 2 h at 4 °C; bound OGT detected with anti-Flag antibody; only the target purified
[2] = target: Myc-tagged importin α7 (human) (UniProt O60684); test: co-IP; HeLa cells co-transfected with Flag-tagged OGT constructs and Myc-tagged importin α or β; lysates immunoprecipitated with anti-Flag or with anti-Myc antibody, the partner detected by western blot; co-IP buffer 50 mM Tris-HCl pH 7.4, 150 mM NaCl, 0.5% NP-40, 4 °C; beads washed three times (stringently in Fig. 4a,b)
[3] = target: Myc-tagged importin α3 (human) (UniProt O00629); test: as above
[4] = target: Myc-tagged importin α4 (human) (UniProt O00505); test: as above
[5] = target: Myc-tagged importin α5 (human) (UniProt P52294); test: as above
[6] = target: Myc-tagged importin β (human) (UniProt Q14974); test: as above
[7] = target: T1, Flag-tagged WT-OGT (human O-GlcNAc transferase) (human); test: co-IP; Flag-tagged WT-OGT or Mono-OGT immunoprecipitated; endogenous OGT looked for (Supplementary Fig. 2)
[8] = target: T2, Flag-tagged Mono-OGT (OGT-W198E, I201D) (human); test: as above
[9] = target: Myc-tagged importin α5 (human) (UniProt P52294); test: co-IP; HeLa cells overexpressing Myc-tagged importin α5; immunoprecipitated with anti-Myc antibody; endogenous OGT detected with an anti-OGT antibody

Row | binding [1] | binding [2] | binding [3] | binding [4] | binding [5] | binding [6] | binding [7] | binding [8] | binding [9] | Binder
1 | binds | no binding | no binding | no binding | binds | no binding |  |  |  | Flag-tagged WT-OGT (human O-GlcNAc transferase) (enzyme, UniProt O15294-3 1-1036) MASSVGNVADSTGLAELAHREYQAGDFEAAERHCMQLWRQEPDNTGVLLLLSSIHFQCRRLDRSAHFSTLAIKQNPLLAEAYSNLGNVYKERGQLQEAIEHYRHALRLKPDFIDGYINLAAALVAAGDMEGAVQAYVSALQYNPDLYCVRSDLGNLLKALGRLEEAKACYLKAIETQPNFAVAWSNLGCVFNAQGEIWLAIHHFEKAVTLDPNFLDAYINLGNVLKEARIFDRAVAAYLRALSLSPNHAVVHGNLACVYYEQGLIDLAIDTYRRAIELQPHFPDAYCNLANALKEKGSVAEAEDCYNTALRLCPTHADSLNNLANIKREQGNIEEAVRLYRKALEVFPEFAAAHSNLASVLQQQGKLQEALMHYKEAIRISPTFADAYSNMGNTLKEMQDVQGALQCYTRAIQINPAFADAHSNLASIHKDSGNIPEAIASYRTALKLKPDFPDAYCNLAHCLQIVCDWTDYDERMKKLVSIVADQLEKNRLPSVHPHHSMLYPLSHGFRKAIAERHGNLCLDKINVLHKPPYEHPKDLKLSDGRLRVGYVSSDFGNHPTSHLMQSIPGMHNPDKFEVFCYALSPDDGTNFRVKVMAEANHFIDLSQIPCNGKAADRIHQDGIHILVNMNGYTKGARNELFALRPAPIQAMWLGYPGTSGALFMDYIITDQETSPAEVAEQYSEKLAYMPHTFFIGDHANMFPHLKKKAVIDFKSNGHIYDNRIVLNGIDLKAFLDSLPDVKIVKMKCPDGGDNADSSNTALNMPVIPMNTIAEAVIEMINRGQIQITINGFSISNGLATTQINNKAATGEEVPRTIIVTTRSQYGLPEDAIVYCNFNQLYKIDPSTLQMWANILKRVPNSVLWLLRFPAVGEPNIQQYAQNMGLPQNRIIFSPVAPKEEHVRRGQLADVCLDTPLCNGHTTGMDVLWAGTPMVTMPGETLASRVAASQLTCLGCLELIAKNRQEYEDIAVKLGTDLEYLKKVRGKVWKQRISSPLFNTKQYTMELERLYLQMWEHYAAGNKPDHMIKPVEVTESA
2 |  |  |  |  |  |  | binds | binds weakly | binds | endogenous OGT (enzyme, UniProt O15294 1-1046) MASSVGNVADSTEPTKRMLSFQGLAELAHREYQAGDFEAAERHCMQLWRQEPDNTGVLLLLSSIHFQCRRLDRSAHFSTLAIKQNPLLAEAYSNLGNVYKERGQLQEAIEHYRHALRLKPDFIDGYINLAAALVAAGDMEGAVQAYVSALQYNPDLYCVRSDLGNLLKALGRLEEAKACYLKAIETQPNFAVAWSNLGCVFNAQGEIWLAIHHFEKAVTLDPNFLDAYINLGNVLKEARIFDRAVAAYLRALSLSPNHAVVHGNLACVYYEQGLIDLAIDTYRRAIELQPHFPDAYCNLANALKEKGSVAEAEDCYNTALRLCPTHADSLNNLANIKREQGNIEEAVRLYRKALEVFPEFAAAHSNLASVLQQQGKLQEALMHYKEAIRISPTFADAYSNMGNTLKEMQDVQGALQCYTRAIQINPAFADAHSNLASIHKDSGNIPEAIASYRTALKLKPDFPDAYCNLAHCLQIVCDWTDYDERMKKLVSIVADQLEKNRLPSVHPHHSMLYPLSHGFRKAIAERHGNLCLDKINVLHKPPYEHPKDLKLSDGRLRVGYVSSDFGNHPTSHLMQSIPGMHNPDKFEVFCYALSPDDGTNFRVKVMAEANHFIDLSQIPCNGKAADRIHQDGIHILVNMNGYTKGARNELFALRPAPIQAMWLGYPGTSGALFMDYIITDQETSPAEVAEQYSEKLAYMPHTFFIGDHANMFPHLKKKAVIDFKSNGHIYDNRIVLNGIDLKAFLDSLPDVKIVKMKCPDGGDNADSSNTALNMPVIPMNTIAEAVIEMINRGQIQITINGFSISNGLATTQINNKAATGEEVPRTIIVTTRSQYGLPEDAIVYCNFNQLYKIDPSTLQMWANILKRVPNSVLWLLRFPAVGEPNIQQYAQNMGLPQNRIIFSPVAPKEEHVRRGQLADVCLDTPLCNGHTTGMDVLWAGTPMVTMPGETLASRVAASQLTCLGCLELIAKNRQEYEDIAVKLGTDLEYLKKVRGKVWKQRISSPLFNTKQYTMELERLYLQMWEHYAAGNKPDHMIKPVEVTESA
